From the supplement of paper PMC11741623
Some of the results follow. Interaction screen of human proteins with wild-type SARS-CoV-2 proteins by split-DHFR complementation in yeast, 1 µg/mL methotrexate. Value = fitness of the pair (three or more lineages) minus that of the viral protein without a human partner, on a scale set by negative (0) and fused positive (1) controls, mean of up to three cultures; higher = more likely to interact. Active = false discovery rate below 0.05 (one-sided t-test) in at least one culture. Nearly all pairs are not hits, and differences among them are mostly noise (correlation between cultures about 0.3); most hits were seen in one culture only. Human sequences are the Swiss-Prot entries looked up by gene name; the clone may be another isoform. NSP2 values were corrected by the authors for a growth advantage. Listed are human proteins with a hit and a random twelfth of the others.

Experiments:
Assay in all cases: yeast fitness gain over the viral ORF with no human partner (scaled fitness); higher = more likely to interact
[1] = molecular target: SARS-CoV-2 NSP10
Experimental: (§1)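 Split mouse DHFR complementation in pooled diploid yeast: human ORFeome clones carry one fragment and viral ORFs the other; barcoded lineages compete in 1 µg/mL methotrexate and fitness is read by barcode sequencing in up to three cultures.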

[2] = molecular target: SARS-CoV-2 NSP12
Experimental: as §1

[3] = molecular target: SARS-CoV-2 NSP13
Experimental: as §1

[4] = molecular target: SARS-CoV-2 NSP15
Experimental: as §1

[5] = molecular target: SARS-CoV-2 NSP16
Experimental: as §1

[6] = molecular target: SARS-CoV-2 NSP2
Experimental: as §1

[7] = molecular target: SARS-CoV-2 NSP5
Experimental: as §1

[8] = molecular target: SARS-CoV-2 NSP6
Experimental: as §1

[9] = molecular target: SARS-CoV-2 NSP7
Experimental: as §1

[10] = molecular target: SARS-CoV-2 NSP8
Experimental: as §1

[11] = molecular target: SARS-CoV-2 ORF10
Experimental: as §1

[12] = molecular target: SARS-CoV-2 ORF3A
Experimental: as §1

[13] = molecular target: SARS-CoV-2 ORF3B
Experimental: as §1

[14] = molecular target: SARS-CoV-2 ORF6
Experimental: as §1

[15] = molecular target: SARS-CoV-2 ORF7B
Experimental: as §1

[16] = molecular target: SARS-CoV-2 ORF8
Experimental: as §1

[17] = molecular target: SARS-CoV-2 ORF9B
Experimental: as §1

[18] = molecular target: SARS-CoV-2 ORF9Bwu (the 73-codon ORF)
Experimental: as §1

[19] = molecular target: SARS-CoV-2 S
Experimental: as §1

[20] = molecular target: SARS-CoV-2 NSP4
Experimental: as §1

[21] = molecular target: SARS-CoV-2 ORF7A
Experimental: as §1

[22] = molecular target: SARS-CoV-2 NSP14
Experimental: as §1

[23] = molecular target: SARS-CoV-2 NSP9
Experimental: as §1

Measured: yeast fitness gain

B1: LYPD3, O95274 (protein)
chain: MDPARKAGAQAMIWTAGWLLLLLLRGGAQALECYSCVQKADDGCSPNKMKTVKCAPGVDVCTEAVGAVETIHGQFSLAVRGCGSGLPGKNDRGLDLHGLLAFIQLQQCAQDRCNAKLNLTSRALDPAGNESAYPPNGVECYSCVGLSREACQGTSPPVVSCYNASDHVYKGCFDGNVTLTAANVTVSLPVRGCVQDEFCTRDGVTGPGFTLSGSCCQGSRCNSDLRNKTYFSPRIPPLVRLPPPEPTTVASTTSVTTSTSAPVRPTSTTKPMPAPTSQTPRQGVEHEASRDEEPRLTGGAAGHQDRSNSGQYPAKGGPQQPHNKGCVAPTAGLAALLLAVAAGVLL
inactive: [1] 0.00161 | [2] 0.0142 | [3] 0.000665 | [4] 0.0418 | [5] 0.0246 | [6] -0.288 | [7] 0.00869 | [8] 0.0527 | [9] -0.0136 | [10] 0.00381 | [11] 0.0157 | [12] -0.0201 | [13] 0.0397 | [14] -0.0125 | [15] 0.0384 | [16] 0.0149 | [17] 0.0583 | [18] -0.174 | [19] 0.0369

B2: MS4A12, Q9NXJ0 (protein)
chain: MMSSKPTSHAEVNETIPNPYPPSSFMAPGFQQPLGSINLENQAQGAQRAQPYGITSPGIFASSQPGQGNIQMINPSVGTAVMNFKEEAKALGVIQIMVGLMHIGFGIVLCLISFSFREVLGFASTAVIGGYPFWGGLSFIISGSLSVSASKELSRCLVKGSLGMNIVSSILAFIGVILLLVDMCINGVAGQDYWAVLSGKGISATLMIFSLLEFFVACATAHFANQANTTTNMSVLVIPNMYESNPVTPASSSAPPRCNNYSANAPK
inactive: [1] 0.0772 | [2] 0.0178 | [3] 0.0438 | [4] -0.0106 | [5] 0.0034 | [6] -0.117 | [20] 0.251 | [7] 0.0395 | [8] 0.0843 | [9] -0.0179 | [10] -0.0477 | [11] -0.0964 | [13] -0.0498 | [14] -0.0697 | [21] -0.00571 | [15] 0.0415 | [16] -0.0234 | [17] -0.0319 | [18] 0.00714 | [19] 0.0275

B3: MYOZ2, Q9NPC6 (protein)
chain: MLSHNTMMKQRKQQATAIMKEVHGNDVDGMDLGKKVSIPRDIMLEELSHLSNRGARLFKMRQRRSDKYTFENFQYQSRAQINHSIAMQNGKVDGSNLEGGSQQAPLTPPNTPDPRSPPNPDNIAPGYSGPLKEIPPEKFNTTAVPKYYQSPWEQAISNDPELLEALYPKLFKPEGKAELPDYRSFNRVATPFGGFEKASRMVKFKVPDFELLLLTDPRFMSFVNPLSGRRSFNRTPKGWISENIPIVITTEPTDDTTVPESEDL
inactive: [1] 0.056 | [3] -0.0848 | [4] 0.0494 | [11] 0.0983 | [16] -0.0201

B4: PELI1, Q96FA3 (protein)
chain: MFSPDQENHPSKAPVKYGELIVLGYNGSLPNGDRGRRKSRFALFKRPKANGVKPSTVHIACTPQAAKAISNKDQHSISYTLSRAQTVVVEYTHDSNTDMFQIGRSTESPIDFVVTDTVPGSQSNSDTQSVQSTISRFACRIICERNPPFTARIYAAGFDSSKNIFLGEKAAKWKTSDGQMDGLTTNGVLVMHPRNGFTEDSKPGIWREISVCGNVFSLRETRSAQQRGKMVEIETNQLQDGSLIDLCGATLLWRTAEGLSHTPTVKHLEALRQEINAARPQCPVGFNTLAFPSMKRKDVVDEKQPWVYLNCGHVHGYHNWGNKEERDGKDRECPMCRSVGPYVPLWLGCEAGFYVDAGPPTHAFSPCGHVCSEKTTAYWSQIPLPHGTHTFHAACPFCAHQLAGEQGYIRLIFQGPLD
inactive: [1] 0.0291 | [2] 0.12 | [3] -0.089 | [22] 0.291 | [6] 0.0928 | [20] -0.152 | [7] -0.0146 | [8] -0.00393 | [23] 0.0849 | [11] -0.0502 | [13] -0.0121 | [14] 0.036 | [15] 0.0407 | [16] 0.0147 | [17] 0.00484

B5: TXNDC8, Q6A555 (protein)
chain: MVQIIKDTNEFKTFLTAAGHKLAVVQFSSKRCGPCKRMFPVFHAMSVKYQNVFFANVDVNNSPELAETCHIKTIPTFQMFKKSQKVTLFSRIKRIICCYRSGFMSNLIFEFCGADAKKLEAKTQELM
inactive: [1] -0.0254 | [2] 0.108 | [3] -0.0978 | [6] -0.153 | [11] 0.017 | [13] -0.00748 | [14] -0.0323 | [16] -0.162 | [17] -0.00137 | [18] 0.00282 | [19] 0.0871

B6: TAF13, Q15543 (protein)
chain: MADEEEDPTFEEENEEIGGGAEGGQGKRKRLFSKELRCMMYGFGDDQNPYTESVDILEDLVIEFITEMTHKAMSIGRQGRVQVEDIVFLIRKDPRKFARVKDLLTMNEELKRARKAFDEANYGS
inactive: [2] -0.0366 | [3] -0.197 | [6] -0.21 | [11] -0.0323 | [13] -0.0409 | [14] 0.0189 | [21] -0.142 | [15] 0.108 | [16] -0.0363 | [17] 0.0838

B7: C12orf36, Q495D7 (protein)
chain: MERFLNSKARRLGSCSHPAFYLLCVPDEDTSCSTIYLPLKRRADPDQLFSDLLGGTQRLWSNRFGNEESFPGRVRALVDTFCWIARAPPLGNPLRLEERIAWRIQRLKSGQTALIEKKKQKIEEDVRHQCQQTTCDRC
inactive: [2] 0.0718 | [3] -0.124 | [6] -0.295 | [18] -0.0218

B8: SPRTN, Q9H040 (protein)
chain: MDDDLMLALRLQEEWNLQEAERDHAQESLSLVDASWELVDPTPDLQALFVQFNDQFFWGQLEAVEVKWSVRMTLCAGICSYEGKGGMCSIRLSEPLLKLRPRKDLVETLLHEMIHAYLFVTNNDKDREGHGPEFCKHMHRINSLTGANITVYHTFHDEVDEYRRHWWRCNGPCQHRPPYYGYVKRATNREPSAHDYWWAEHQKTCGGTYIKIKEPENYSKKGKGKAKLGKEPVLAAENKDKPNRGEAQLVIPFSGKGYVLGETSNLPSPGKLITSHAINKTQDLLNQNHSANAVRPNSKIKVKFEQNGSSKNSHLVSPAVSNSHQNVLSNYFPRVSFANQKAFRGVNGSPRISVTVGNIPKNSVSSSSQRRVSSSKISLRNSSKVTESASVMPSQDVSGSEDTFPNKRPRLEDKTVFDNFFIKKEQIKSSGNDPKYSTTTAQNSSSSSSQSKMVNCPVCQNEVLESQINEHLDWCLEGDSIKVKSEESL
inactive: [2] 0.0956 | [3] -0.173 | [6] -0.0463 | [13] 0.181 | [14] 0.033 | [15] 0.0268 | [17] 0.0919

B9: ASAH1, Q13510 (protein)
chain: MPGRSCVALVLLAAAVSCAVAQHAPPWTEDCRKSTYPPSGPTYRGAVPWYTINLDLPPYKRWHELMLDKAPVLKVIVNSLKNMINTFVPSGKIMQVVDEKLPGLLGNFPGPFEEEMKGIAAVTDIPLGEIISFNIFYELFTICTSIVAEDKKGHLIHGRNMDFGVFLGWNINNDTWVITEQLKPLTVNLDFQRNNKTVFKASSFAGYVGMLTGFKPGLFSLTLNERFSINGGYLGILEWILGKKDVMWIGFLTRTVLENSTSYEEAKNLLTKTKILAPAYFILGGNQSGEGCVITRDRKESLDVYELDAKQGRWYVVQTNYDRWKHPFFLDDRRTPAKMCLNRTSQENISFETMYDVLSTKPVLNKLTVYTTLIDVTKGQFETYLRDCPDPCIGW
inactive: [2] 0.133 | [3] 0.0737 | [7] 0.0442 | [14] 0.053 | [17] 0.013 | [19] 0.159

B10: PJA1, Q8NG27 (protein)
chain: MGQESSKPVWPNPTGGYQSNTGRRYGRRHAYVSFRPPTSQRERIASQRKTNSEVPMHRSAPSQTTKRSRSPFSTTRRSWDDSESSGTNLNIDNEDYSRYPPREYRASGSRRGMAYGHIDSYGADDSEEEGAGPVERPPVRGKTGKFKDDKLYDPEKGARSLAGPPPHFSSFSRDVREERDKLDPVPAARCSASRADFLPQSSVASQSSSEGKLATKGDSSERERREQNLPARPSRAPVSICGGGENTSKSAEEPVVRPKIRNLASPNCVKPKIFFDTDDDDDMPHSTSRWRDTANDNEGHSDGLARRGRGESSSGYPEPKYPEDKREARSDQVKPEKVPRRRRTMADPDFWTHSDDYYKYCDEDSDSDKEWIAALRRKYRSREQTLSSSGESWETLPGKEEREPPQAKVSASTGTSPGPGASASAGAGAGASAGSNGSNYLEEVREPSLQEEQASLEEGEIPWLQYHENDSSSEGDNDSGHELMQPGVFMLDGNNNLEDDSSVSEDLEVDWSLFDGFADGLGVAEAISYVDPQFLTYMALEERLAQAMETALAHLESLAVDVEVANPPASKESIDALPEILVTEDHGAVGQEMCCPICCSEYVKGEVATELPCHHYFHKPCVSIWLQKSGTCPVCRCMFPPPL
inactive: [2] -0.0885 | [3] 0.0319 | [6] -0.221 | [20] 0.164 | [13] 0.0667 | [15] -0.015 | [16] -0.0804 | [17] 0.0439 | [19] -0.0422

B11: TMEM108, Q6UXF1 (protein)
chain: MKRSLQALYCQLLSFLLILALTEALAFAIQEPSPRESLQVLPSGTPPGTMVTAPHSSTRHTSVVMLTPNPDGPPSQAAAPMATPTPRAEGHPPTHTISTIAATVTAPHSESSLSTGPAPAAMATTSSKPEGRPRGQAAPTILLTKPPGATSRPTTAPPRTTTRRPPRPPGSSRKGAGNSSRPVPPAPGGHSRSKEGQRGRNPSSTPLGQKRPLGKIFQIYKGNFTGSVEPEPSTLTPRTPLWGYSSSPQPQTVAATTVPSNTSWAPTTTSLGPAKDKPGLRRAAQGGGSTFTSQGGTPDATAASGAPVSPQAAPVPSQRPHHGDPQDGPSHSDSWLTVTPGTSRPLSTSSGVFTAATGPTPAAFDTSVSAPSQGIPQGASTTPQAPTHPSRVSESTISGAKEETVATLTMTDRVPSPLSTVVSTATGNFLNRLVPAGTWKPGTAGNISHVAEGDKPQHRATICLSKMDIAWVILAISVPISSCSVLLTVCCMKRKKKTANPENNLSYWNNTITMDYFNRHAVELPREIQSLETSEDQLSEPRSPANGDYRDTGMVLVNPFCQETLFVGNDQVSEI
inactive: [2] 0.0853 | [14] -0.0262
